Results published in a compilation of properties of binary mixtures (doi:10.1021/acs.jced.0c00298).
Some of these densities may be calculated back from excess volumes.

Experiment: xn = mol fraction of the nth substance listed
Details: 100 kPa

CO + CC[n+]1ccn(CCOC)c1.O=S(=O)([N-]S(=O)(=O)C(F)(F)F)C(F)(F)F
x2 = 0
Details | mass density [kg/m3]
288.15 K | 795.9
293.15 K | 791.2
298.15 K | 786.5
303.15 K | 781.8
308.15 K | 777
318.15 K | 767.4

CC[n+]1ccn(CCOC)c1.O=S(=O)([N-]S(=O)(=O)C(F)(F)F)C(F)(F)F + CO
mass density [kg/m3]
Details | x1 = 0.1 | x1 = 0.1997 | x1 = 0.2999 | x1 = 0.3966 | x1 = 0.5 | x1 = 0.5984 | x1 = 0.6953 | x1 = 0.7934 | x1 = 0.9016 | x1 = 1
288.15 K | 1106.5 | 1240.7 | – | 1361.5 | – | – | 1436.7 | – | 1463.6 | 1471.8
293.15 K | 1101.4 | 1235.5 | 1310 | 1356.3 | 1389.9 | 1413.9 | 1431.6 | 1446.1 | 1458.5 | –
298.15 K | – | 1230.4 | – | 1351.1 | 1384.7 | 1408.7 | 1426.5 | 1441 | 1453.4 | 1461.7
303.15 K | 1091.3 | 1225.2 | – | 1346 | – | 1403.6 | 1421.4 | 1435.9 | 1448.4 | –
308.15 K | 1086.2 | – | – | – | 1374.5 | – | 1416.3 | – | 1443.4 | 1451.6
313.15 K | 1081 | 1214.9 | 1289.4 | 1335.7 | 1369.4 | – | – | – | 1438.4 | 1446.6
318.15 K | 1075.9 | 1209.7 | – | 1330.6 | 1364.3 | 1388.4 | 1406.2 | 1420.8 | 1433.4 | 1441.6
